# These are yes or no findings as the source states them, for the method shown. In cells and extracts the contact can be indirect. Some binding calls cover weakened binding; strength is not graded here. For some assays here: Tags and fused reporters may be left off the sequences shown.
# Sequences of proteins named here, by UniProt entry; tags and fusion partners are left off. Residues count along the entry.
# UniProt P21860, residues 20-1342: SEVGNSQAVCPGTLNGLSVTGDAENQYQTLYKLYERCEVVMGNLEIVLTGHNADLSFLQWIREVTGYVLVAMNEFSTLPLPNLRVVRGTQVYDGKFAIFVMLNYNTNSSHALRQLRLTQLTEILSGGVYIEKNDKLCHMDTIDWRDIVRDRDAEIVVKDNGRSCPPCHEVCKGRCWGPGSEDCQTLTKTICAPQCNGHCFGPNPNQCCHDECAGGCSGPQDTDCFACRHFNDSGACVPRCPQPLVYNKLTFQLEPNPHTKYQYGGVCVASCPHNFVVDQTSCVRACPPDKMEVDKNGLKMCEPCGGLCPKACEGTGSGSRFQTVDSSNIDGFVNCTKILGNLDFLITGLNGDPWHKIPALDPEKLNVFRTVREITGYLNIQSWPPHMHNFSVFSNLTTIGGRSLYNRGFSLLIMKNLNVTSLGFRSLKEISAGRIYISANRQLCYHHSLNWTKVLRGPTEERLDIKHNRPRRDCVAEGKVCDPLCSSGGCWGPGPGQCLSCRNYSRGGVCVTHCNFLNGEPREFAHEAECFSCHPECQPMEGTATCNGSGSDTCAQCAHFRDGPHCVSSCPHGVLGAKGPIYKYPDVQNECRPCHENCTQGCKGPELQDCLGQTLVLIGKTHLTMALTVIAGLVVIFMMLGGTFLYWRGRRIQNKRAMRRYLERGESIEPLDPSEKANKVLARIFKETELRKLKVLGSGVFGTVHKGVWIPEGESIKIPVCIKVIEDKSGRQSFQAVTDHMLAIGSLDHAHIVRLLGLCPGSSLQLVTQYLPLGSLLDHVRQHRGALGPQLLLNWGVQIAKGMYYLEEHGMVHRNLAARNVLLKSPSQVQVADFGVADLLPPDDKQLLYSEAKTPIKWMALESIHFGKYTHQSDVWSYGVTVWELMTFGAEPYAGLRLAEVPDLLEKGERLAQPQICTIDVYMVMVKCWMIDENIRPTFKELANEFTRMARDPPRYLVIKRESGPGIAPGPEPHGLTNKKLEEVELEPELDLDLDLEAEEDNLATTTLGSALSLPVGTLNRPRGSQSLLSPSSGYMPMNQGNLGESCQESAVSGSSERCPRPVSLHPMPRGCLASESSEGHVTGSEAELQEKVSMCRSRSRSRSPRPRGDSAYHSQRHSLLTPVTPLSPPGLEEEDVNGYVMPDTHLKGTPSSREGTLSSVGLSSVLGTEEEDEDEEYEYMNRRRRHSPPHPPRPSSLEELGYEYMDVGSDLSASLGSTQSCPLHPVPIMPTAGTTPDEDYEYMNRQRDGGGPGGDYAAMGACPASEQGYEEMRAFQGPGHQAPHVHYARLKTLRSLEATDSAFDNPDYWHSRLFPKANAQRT
# T1: Ebp1, endogenous approximately 50 kDa protein in AU565 cells (human (endogenous in AU565)) (UniProt Q9UQ80)
# T1 sequence: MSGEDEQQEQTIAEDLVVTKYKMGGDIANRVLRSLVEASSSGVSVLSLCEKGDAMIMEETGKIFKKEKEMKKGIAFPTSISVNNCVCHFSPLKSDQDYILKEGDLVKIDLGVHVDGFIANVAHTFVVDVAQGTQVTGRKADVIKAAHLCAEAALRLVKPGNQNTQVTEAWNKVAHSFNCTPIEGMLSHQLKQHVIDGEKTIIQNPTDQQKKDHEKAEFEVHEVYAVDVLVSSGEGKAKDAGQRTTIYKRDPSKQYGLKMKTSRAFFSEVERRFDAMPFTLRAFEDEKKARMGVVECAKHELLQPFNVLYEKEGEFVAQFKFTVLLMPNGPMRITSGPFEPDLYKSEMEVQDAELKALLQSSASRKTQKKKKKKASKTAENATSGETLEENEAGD
# T2: 35S-labelled in vitro translation product of pBK/Ebp1 (amino acids 1-373 of Ebp1) (human) (UniProt Q9UQ80)
# T2 sequence (chain, 35S-labelled): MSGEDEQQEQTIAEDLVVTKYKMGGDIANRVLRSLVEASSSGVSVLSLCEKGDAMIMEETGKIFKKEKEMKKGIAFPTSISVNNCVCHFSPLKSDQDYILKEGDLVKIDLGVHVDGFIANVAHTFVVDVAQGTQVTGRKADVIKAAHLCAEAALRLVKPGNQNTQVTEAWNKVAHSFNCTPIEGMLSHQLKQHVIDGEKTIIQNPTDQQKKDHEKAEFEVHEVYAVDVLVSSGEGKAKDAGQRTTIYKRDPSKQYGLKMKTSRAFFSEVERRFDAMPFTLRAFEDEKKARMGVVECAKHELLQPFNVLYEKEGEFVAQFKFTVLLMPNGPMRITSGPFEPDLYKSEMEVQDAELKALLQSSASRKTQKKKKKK
# Legend:
# [1] = biological target: T1, Ebp1, endogenous approximately 50 kDa protein in AU565 cells (human (endogenous in AU565)); test: co-IP; AU565 cell lysates in RIPA buffer, endogenous proteins; immunoprecipitated with anti-ErbB-3 (C-17), anti-ErbB-2 or anti-GST-EBP1 antibody, rabbit IgG as control; immunoblotting
# [2] = biological target: ErbB-3, endogenous in AU565 cells (human (endogenous in AU565)) (UniProt P21860); test: as above
# [3] = biological target: ErbB-2, endogenous in AU565 cells (human (endogenous in AU565)) (UniProt P04626); test: as above
# [4] = biological target: T2, 35S-labelled in vitro translation product of pBK/Ebp1 (amino acids 1-373 of Ebp1) (human); test: pull-down; competition: ErbB-3 peptide (aa 665-690) in 75- to 1000-fold excess against GST-ErbB-3 (aa 665-690) for in vitro translated 35S-Ebp1; the peptide as competitor; only the binder purified
# [5] = biological target: Human EGFR expressed in NIH 3T3 cells (human) (UniProt P00533); test: co-IP; NIH3T3 cells overexpressing human EGFR, transiently transfected with Flag-tagged Ebp1, 48 h; lysates immunoprecipitated with rabbit anti-EGFR antibody or rabbit IgG; blotted with anti-Flag (M2) and anti-EGFR
molecule,measurement,setting,value
"ErbB-3, endogenous in AU565 cells (from UniProt P21860 20-1342) (receptor)",binding,[1],binds
"Ebp1, endogenous approximately 50 kDa protein in AU565 cells (natural protein, human (endogenous in AU565), UniProt Q9UQ80 1-394, looked up, Ebp1 (PA2G4), endogenous full-length protein of approximately 50 kDa in the human AU565 mammary carcinoma cell line; predicted protein of 394 amino acid residues; also called PA2G4; source: endogenous, AU565 lysate) MSGEDEQQEQTIAEDLVVTKYKMGGDIANRVLRSLVEASSSGVSVLSLCEKGDAMIMEETGKIFKKEKEMKKGIAFPTSISVNNCVCHFSPLKSDQDYILKEGDLVKIDLGVHVDGFIANVAHTFVVDVAQGTQVTGRKADVIKAAHLCAEAALRLVKPGNQNTQVTEAWNKVAHSFNCTPIEGMLSHQLKQHVIDGEKTIIQNPTDQQKKDHEKAEFEVHEVYAVDVLVSSGEGKAKDAGQRTTIYKRDPSKQYGLKMKTSRAFFSEVERRFDAMPFTLRAFEDEKKARMGVVECAKHELLQPFNVLYEKEGEFVAQFKFTVLLMPNGPMRITSGPFEPDLYKSEMEVQDAELKALLQSSASRKTQKKKKKKASKTAENATSGETLEENEAGD",binding,[2],binds
same,binding,[3],no binding
RGRRIQNKRAMRRYLERGESIEPLDP [ErbB-3 competing peptide (aa 665-690)],binding,[4],binds
"Flag-tagged Ebp1 (protein, UniProt Q9UQ80 1-394) MSGEDEQQEQTIAEDLVVTKYKMGGDIANRVLRSLVEASSSGVSVLSLCEKGDAMIMEETGKIFKKEKEMKKGIAFPTSISVNNCVCHFSPLKSDQDYILKEGDLVKIDLGVHVDGFIANVAHTFVVDVAQGTQVTGRKADVIKAAHLCAEAALRLVKPGNQNTQVTEAWNKVAHSFNCTPIEGMLSHQLKQHVIDGEKTIIQNPTDQQKKDHEKAEFEVHEVYAVDVLVSSGEGKAKDAGQRTTIYKRDPSKQYGLKMKTSRAFFSEVERRFDAMPFTLRAFEDEKKARMGVVECAKHELLQPFNVLYEKEGEFVAQFKFTVLLMPNGPMRITSGPFEPDLYKSEMEVQDAELKALLQSSASRKTQKKKKKKASKTAENATSGETLEENEAGD",binding,[5],no binding
